Patent publication US8008088B2, “SMMR (small molecule metabolite reporters) for use as in vivo glucose biosensors” (Masimo Laboratories, Inc., priority 2003, dated 2011)

Experiment: Fluorescence and absorption response of boronic acid reporters to glucose in buffer solution (in vitro)
Settings: over a glucose range of 200 mg/dL; excitation 375 nm; emission 400-550 nm

For `O=C(Nc1ccc2c(C(F)(F)F)cc(=O)oc2c1)c1ccc(B(O)O)cc1` [AF-327d], the fluorescence intensity increase was “at least 40%”.
